# PMC4336329 (PLoS ONE, 2015)
# Among all 310,000 compounds or so, about 2,200 (0.71%) showed an effect of 50% or more. Effects have a minus sign here. This is one part of the list.
# Target: human ether-à-go-go-related gene (hERG) potassium channel (human, UniProt Q12809)
# Experiment: primary screen, population patch clamp on CHO cells stably expressing hERG
# Sequence of human ether-à-go-go-related gene (hERG) potassium channel (Q12809 whole entry, looked up): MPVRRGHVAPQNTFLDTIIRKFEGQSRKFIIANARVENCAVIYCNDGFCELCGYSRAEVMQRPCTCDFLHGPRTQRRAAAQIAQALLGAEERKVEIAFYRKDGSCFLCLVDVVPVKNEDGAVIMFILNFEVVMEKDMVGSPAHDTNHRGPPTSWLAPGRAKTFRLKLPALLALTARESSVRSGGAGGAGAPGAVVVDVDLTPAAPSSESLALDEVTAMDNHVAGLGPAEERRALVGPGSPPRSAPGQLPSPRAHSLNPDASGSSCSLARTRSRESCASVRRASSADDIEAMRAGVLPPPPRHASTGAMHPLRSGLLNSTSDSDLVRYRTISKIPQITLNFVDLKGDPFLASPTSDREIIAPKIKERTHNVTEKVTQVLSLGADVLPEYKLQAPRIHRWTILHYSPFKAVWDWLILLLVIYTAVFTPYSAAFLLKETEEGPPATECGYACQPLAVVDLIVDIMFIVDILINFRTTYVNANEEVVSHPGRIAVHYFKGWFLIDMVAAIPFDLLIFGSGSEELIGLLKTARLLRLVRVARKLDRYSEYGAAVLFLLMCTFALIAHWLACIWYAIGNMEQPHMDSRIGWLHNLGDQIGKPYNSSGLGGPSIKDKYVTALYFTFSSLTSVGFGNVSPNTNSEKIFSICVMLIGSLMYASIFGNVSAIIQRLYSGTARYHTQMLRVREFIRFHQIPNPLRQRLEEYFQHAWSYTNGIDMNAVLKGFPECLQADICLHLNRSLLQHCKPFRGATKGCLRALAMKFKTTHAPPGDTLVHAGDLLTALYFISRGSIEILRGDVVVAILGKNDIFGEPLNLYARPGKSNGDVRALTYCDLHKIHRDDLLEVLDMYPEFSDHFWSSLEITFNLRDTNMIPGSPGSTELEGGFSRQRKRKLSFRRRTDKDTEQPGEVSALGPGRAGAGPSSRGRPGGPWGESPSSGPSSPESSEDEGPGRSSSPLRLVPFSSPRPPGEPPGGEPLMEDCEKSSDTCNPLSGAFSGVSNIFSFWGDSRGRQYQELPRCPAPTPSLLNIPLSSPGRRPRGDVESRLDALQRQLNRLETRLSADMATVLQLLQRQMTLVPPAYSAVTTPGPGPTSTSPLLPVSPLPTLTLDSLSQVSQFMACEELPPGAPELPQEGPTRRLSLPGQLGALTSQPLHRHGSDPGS
row,Compound,"hERG current change (%, negative = inhibition) at 1uM [%]"
1,CCc1ccc(Nc2c([N+](=O)[O-])c(=O)oc3ccccc23)cc1,11.5
2,Cc1ccc(CSc2ncccc2C(=O)O)cc1,10.9
3,CN(C)c1ccc(NC(=O)CSc2nc3c(c(=O)[nH]2)CCCC3)cc1,-12.3
4,O=C(O)c1cc(-c2ccco2)[nH]n1,3
5,Cc1ccc2oc(=O)c3cnn(CC(=O)NCCCOC(C)C)c3c2c1,3.01
6,Fc1cccc(CSc2nc3ncccc3[nH]2)c1,17.1
7,CC(=O)NCc1ccc(C(=O)CSc2nnc(C3CC3)n2C2CC2)cc1,13.5
8,CCc1c(C)nc(SCC(=O)NC2CCCC2)[nH]c1=O,19.8
9,COC(CNS(=O)(=O)c1ccc(Cl)cc1)c1ccccc1 (stereo not drawn),6.16
10,Cc1ccc(OCCn2c(=O)n(C)c3ccccc32)cc1,11
11,CCOc1ccccc1-c1noc(CCCC(=O)NC2CCCCC2)n1,11.1
12,COc1ccc(CNC(=O)C2CCCN(S(=O)(=O)c3c(C)n[nH]c3C)C2)cc1 (stereo not drawn),0.393
13,O=C(NC(Cc1ccccc1)C(=O)O)OCC1c2ccccc2-c2ccccc21 (stereo not drawn),13.1
14,Cl.O=[N+]([O-])c1ccccc1OCCCN1CCc2ccccc2C1,-8.59
15,COC(=O)c1ccccc1NC(=O)CNC(=O)c1ccc(OC)cc1,2.5
16,CN(C)C(=O)c1cc2cc([N+](=O)[O-])ccc2s1,5.57
17,CC(C)CC(=O)N1CCN(S(=O)(=O)c2ccc(Cl)cc2)CC1,0.918
18,CCCCN(C(=O)Cn1nnc2ccccc21)C(C(=O)NCc1ccco1)c1ccncc1 (stereo not drawn),3.31
19,Cc1cc(Oc2ccccc2)nc(-c2ccccc2O)n1,-3.35
20,Cc1ccc2nc(C)cc(C(=O)Nc3nccs3)c2c1,10.8
21,COc1ccc(/C=N/N=C2\SCC(=O)N2c2c(C)n(C)n(-c3ccccc3)c2=O)cc1OC,23.4
22,Cc1[nH]c(=O)[nH]c1C(=O)CCCCC(=O)OCC(=O)Nc1ccccn1,13.1
23,COc1cccc(-c2nc(-c3ccncc3)no2)c1,-0.32

row,Compound,"hERG current change (%, negative = inhibition) at 1uM [%]"
1,Cn1cnnc1SCC(=O)Nc1sc2c(c1C#N)CCCCC2,-4.87
2,CCC1CCc2c(sc3nc(SCC(=O)NCc4ccco4)n(-c4ccccc4)c(=O)c23)C1 (stereo not drawn),9.47
3,CCN1CCC(NC(=O)Nc2cccc(C(F)(F)F)c2)CC1,-14
4,O=C(CCn1nc(-c2ccc(Cl)cc2)ccc1=O)NCc1cccnc1,-7.54
5,COC(=O)C1=NN(c2ccc(C)cc2)C2(S1)SC(C(C)=O)=C(C)N2c1ccccc1 (stereo not drawn),-0.862
6,COC(=O)c1ccc(NC(=O)N2CCC(O)(c3cccnc3)CC2)cc1,8.63
7,CCOc1ccc(NC(=O)CN2CCN(c3ccccc3C)CC2)cc1S(=O)(=O)N1CCCC1,5.59
8,O=C(CNC(=O)c1ccccc1F)OCC(=O)c1ccc(Cl)s1,12.2
9,O=C(Nc1cccc(C(=O)O)c1)Nc1cccc2ccccc12,22.4
10,CN(C)C=Nc1nonc1N,5.74
11,Cc1ccc(S(=O)(=O)NCc2ccco2)c(C)c1C,4.69
12,CCC(=O)N1CCc2cc(S(=O)(=O)NCCC(=O)Nc3ccccc3C)ccc21,10.4
13,CN1CCc2c(n(CC(O)CNCc3ccccc3)c3ccccc23)C1=O.Cl (stereo not drawn),-15
14,O=CN1CCN(c2c([N+](=O)[O-])c(=O)oc3ccccc23)CC1,14
15,O=C(NC1CCCCCC1)C1Cc2ccccc2CN1C(=O)c1ccco1 (stereo not drawn),14.7
16,Cc1ccc(NS(=O)(=O)c2ccc(-c3coc(C)n3)cc2)c(Br)c1,12.2
17,CCOC(=O)N1CCN(C(=O)c2noc3c2COc2ccccc2-3)CC1,5.65
18,O=C(C1=C[C@H](c2ccc(C(F)(F)F)cc2)C[C@H](OCc2ccc(CO)cc2)O1)N1CCN(Cc2ccc3c(c2)OCO3)CC1,-9.65
19,Cc1cc(=O)[nH]c(Nc2cccc(C(F)(F)F)c2)n1,-2.7
20,O=C(C1CC2CCC1C2)N1CCN(Cc2ccc3c(c2)OCO3)CC1 (stereo not drawn),9.72
21,O=C(N/N=C/c1cc(Cl)cc([N+](=O)[O-])c1O)NC12CC3CC(CC(C3)C1)C2,12.2
22,CCCCNC(=S)NNC(=O)c1nn(C)c(C)c1Cl,9.11
